In publication PMC4336329 (PLoS ONE, 2015):
Hit rate of the full screen: of about 310,000 compounds, about 2,200 (0.71%) showed an effect of 50% or more. Effects have a minus sign here. This is one part of the list.

Molecular target: human ether-à-go-go-related gene (hERG) potassium channel (human, UniProt Q12809)
Test: primary screen, population patch clamp on CHO cells stably expressing hERG

human ether-à-go-go-related gene (hERG) potassium channel, sequence (Q12809 whole entry, looked up): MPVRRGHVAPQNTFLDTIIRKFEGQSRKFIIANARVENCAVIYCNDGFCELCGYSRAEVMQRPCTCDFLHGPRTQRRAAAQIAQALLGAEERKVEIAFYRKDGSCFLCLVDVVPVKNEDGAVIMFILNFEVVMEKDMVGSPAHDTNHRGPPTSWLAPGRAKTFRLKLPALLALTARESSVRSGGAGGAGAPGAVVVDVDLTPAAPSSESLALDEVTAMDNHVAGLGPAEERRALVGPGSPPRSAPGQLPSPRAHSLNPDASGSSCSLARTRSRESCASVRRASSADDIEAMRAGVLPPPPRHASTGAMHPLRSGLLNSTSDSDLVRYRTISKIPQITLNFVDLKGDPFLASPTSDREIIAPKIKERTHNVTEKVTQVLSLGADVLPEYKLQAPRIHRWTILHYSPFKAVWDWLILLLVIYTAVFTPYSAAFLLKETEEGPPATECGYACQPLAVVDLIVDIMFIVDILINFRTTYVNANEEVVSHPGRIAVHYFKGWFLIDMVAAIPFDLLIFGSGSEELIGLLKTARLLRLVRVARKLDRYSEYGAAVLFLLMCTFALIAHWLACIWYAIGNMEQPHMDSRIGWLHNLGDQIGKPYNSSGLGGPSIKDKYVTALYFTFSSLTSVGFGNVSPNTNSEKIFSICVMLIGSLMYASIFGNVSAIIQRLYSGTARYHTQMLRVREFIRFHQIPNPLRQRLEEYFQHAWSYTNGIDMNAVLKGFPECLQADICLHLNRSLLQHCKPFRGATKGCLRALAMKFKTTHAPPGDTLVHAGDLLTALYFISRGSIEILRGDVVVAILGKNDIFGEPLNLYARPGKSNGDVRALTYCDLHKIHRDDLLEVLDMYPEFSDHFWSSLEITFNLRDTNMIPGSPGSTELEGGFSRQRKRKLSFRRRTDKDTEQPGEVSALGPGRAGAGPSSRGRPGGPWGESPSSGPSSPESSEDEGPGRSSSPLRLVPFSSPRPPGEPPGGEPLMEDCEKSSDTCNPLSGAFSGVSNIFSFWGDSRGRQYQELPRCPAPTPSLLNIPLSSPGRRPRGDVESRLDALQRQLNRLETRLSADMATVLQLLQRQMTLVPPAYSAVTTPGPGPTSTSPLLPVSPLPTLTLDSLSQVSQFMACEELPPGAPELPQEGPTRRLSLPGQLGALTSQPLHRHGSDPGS

Row | SMILES | hERG current change (%, negative = inhibition) at 1uM [%]
1 | CCOC(=O)C1=C(c2ccccc2)N=C2SCC(=O)N2C1c1ccc2c(c1)OCO2 (stereo not shown) | -1.68
2 | C#CCNC(=O)C1=C[C@H](c2coc3ccccc3c2=O)[C@@H](CCCO)[C@H](OCC)O1 | -3.42
3 | COc1ccc(NC(=O)CN(c2ccc(F)cc2)S(=O)(=O)c2ccccc2)c(OC)c1 | 4.11
4 | Cc1nnc(SCC(=O)N(CC(C)C)c2c(N)n(CC(C)C)c(=O)[nH]c2=O)n1-c1ccccc1 | 12.3
5 | Cc1cccc(OCC(=O)N(C)CC(=O)Nc2cccc(F)c2)c1C | 10.4
6 | COc1ccc(S(=O)(=O)N2CCCC(C(=O)N3CCN(C)CC3)C2)cc1Cl (stereo not shown) | 18.8
7 | O=C(Nc1ccncc1)C1(c2ccccc2)CCCC1 | 8.12
8 | CCOc1ccc(N2C(=O)Nc3ccc(Br)cc3C2(O)C(=O)NCCN(C)C)cc1 (stereo not shown) | 7.02
9 | COc1ccc(C(=O)/C=C/C(=O)N(Cc2ccccc2OC)C(C(=O)NC2CCCCC2)c2ccncc2)c(O)c1 (stereo not shown) | 10
10 | CC(=O)OCC1OC(c2ccccc2)C(OC(C)=O)C(OC(C)=O)C1OC(C)=O (stereo not shown) | 0.299
11 | COc1ccc(-c2cc3nc[nH]c(=O)c3s2)cc1 | 14.8
12 | CCOC(=O)N1CC[NH+](CCC(=O)Nc2cccc(Br)c2)CC1.[Cl-] | 0.599
13 | Cc1ccc(NS(=O)(=O)c2ccc(N/N=C/c3ccncc3)c([N+](=O)[O-])c2)c(C)c1 | 18.2
14 | COc1ccc(C(=O)NC2CCN(C(=S)Nc3cccc(C)c3C)CC2)cc1 | 3.36
15 | Cc1ccc(Cl)cc1NC(=O)CSc1sc2c(O)cc(=O)[nH]c2c1C#N | 12.3
16 | Cc1ccc(SCCC(=O)Nc2nccs2)cc1 | 5.96
17 | CCCc1cc(=O)n2[nH]c(NCc3ccc(OC)c(OC)c3)nc2n1 | 7.97
18 | O=C(NC1CCCC1)C1CCCN1C(=O)Nc1ccccc1Cl (stereo not shown) | 1.95
19 | Cc1ccn2cc(-c3cccc(S(=O)(=O)N4CC(C)OC(C)C4)c3)nc2c1 (stereo not shown) | 14.7
20 | CN(c1ccccc1)S(=O)(=O)c1ccc(C(=O)NCc2ccccn2)cc1 | 6.41
21 | CCN(CC)C(=O)c1sc(NC(=O)c2ccco2)c(C#N)c1C | 3.1
22 | CC(=O)c1ccc(NC(=O)C2C3CCC(C3)C2C(=O)O)cc1 (stereo not shown) | 15.8

Row | SMILES | hERG current change (%, negative = inhibition) at 1uM [%]
23 | CCOC(=O)NC1(NCC(C)C)Oc2ccccc2O1 | 3.97
24 | O=c1c(-c2ccc(Cl)cc2)coc2c(CN3CCOCC3)c(O)ccc12 | 3.94
25 | CC1CCCN(Cc2nc3c(c(=O)n(C)c(=O)n3C)n2CCCc2ccccc2)C1 (stereo not shown) | 6.69
26 | O=C(O)c1ccc(-n2nc(C(F)(F)F)c3c2CCCC3)cc1 | 15.2
27 | O=C(CSc1nnc(CNC(=O)c2cccs2)o1)Nc1ccccc1C(F)(F)F | 7.51
28 | COc1ccc(NC(=O)c2cccnc2)c([N+](=O)[O-])c1 | 6.98
29 | CC(CCc1ccccc1)NC(=O)COC(=O)c1cccc(N(C)C)c1 (stereo not shown) | 1.39
30 | CCCC1=C(C(=O)OCC)C(c2ccccc2OC)NC(=O)N1 (stereo not shown) | 16.8
31 | COCCNC(=O)C(c1ccc(F)cc1)N(C(=O)CCC(=O)Nc1nccs1)c1ccc(C)cc1 (stereo not shown) | 9.55
32 | CCOC(=O)c1c(CSCc2ccccc2)oc2ccc(O)c(CN(C)C)c12.Cl | 0.859
33 | Cc1csc2c(SCC(=O)NNC(=O)C(Cl)Cl)ncnc12 | 9.55
34 | COCCn1nnnc1CN1CCN(c2cccc(C(F)(F)F)c2)CC1 | -3.76
35 | Cc1ccn(-c2cccc(-n3ccc(C)n3)n2)n1 | 12.1
36 | CC1(C)CC(=O)C2=C(C1)N(c1ccc(F)cc1)C(N)=C(C#N)C2c1cccs1 (stereo not shown) | 4.89
37 | CCC(=O)NC(c1cc(Cl)c2cccnc2c1O)C1CC1 (stereo not shown) | -0.0779
38 | O=C1Nc2ccccc2/C1=N\N1CCOCC1 | 8.38
39 | Cc1ccc(N2CCN(/N=C/c3ccccc3)CC2)cc1 | -0.671
40 | CCc1ccc(NC(=O)CCn2cccc2)cc1 | 11.5
41 | O=C(Nc1ccccc1)OCc1cnc(Cl)s1 | 18.7
42 | O=c1ccc(S(=O)(=O)N2CCCC2)cn1Cc1ccc(Cl)cc1Cl | -0.528
43 | COc1ccc(C(=O)NCC(=O)OCC(=O)Nc2ncc(Cl)cc2Cl)cc1[N+](=O)[O-] | 10.7
44 | C=CCn1c(=O)n(C(=O)OCC)c2cc(Br)ccc21 | 6.78

Row | SMILES | hERG current change (%, negative = inhibition) at 1uM [%]
45 | COc1ccc(C(=O)Nn2cnc3ccccc3c2=O)c(OC)c1 | 11.7
46 | CC1CCN(CC(=O)Nc2ccc(S(=O)(=O)NC3CC3)cc2)CC1.O=C(O)C(=O)O | -2.82
47 | O=S(=O)(c1ccc(F)c(F)c1)N1CCN(c2ccccn2)CC1 | 18
48 | C/C(=C\c1ccccc1)C(=O)c1c(C)cc(C)[nH]c1=O | 2.1
49 | CCOC(=O)CCCNC(=O)CSc1nc2ccc(OCC)cc2[nH]1 | 9.24
50 | CCOCCCNC(=O)CN(c1cc([N+](=O)[O-])ccc1OC)S(C)(=O)=O | 13.3
51 | CN(Cc1ccccc1)C(=O)c1ccc(NC(=O)c2ccccc2)cc1 | 9.56
52 | Cc1cccc(NC(=O)CN2CCCCCC2)c1 | 10.8
53 | NS(=O)(=O)c1cccc(NC(=O)COC(=O)c2cc(Cl)ccc2[N+](=O)[O-])c1 | 12.7
54 | Cc1ccc(C(=O)C2=C(O)C(=O)N(Cc3ccco3)C2c2cccc(Br)c2)o1 (stereo not shown) | 16
55 | Cc1cccc(Cc2cnc(N3C(=N)SC(c4ccccc4)C3=O)s2)c1 (stereo not shown) | 9.2
56 | CCc1ccccc1N(CC(=O)N/N=C/c1ccc(OC(=O)OC)c(OC)c1)S(C)(=O)=O | 3.95
57 | O=C(Nc1cccc(S(=O)(=O)N2CCOCC2)c1)C1CCCC1 | 1.98
58 | COc1ccc(N(C)C(=O)c2onc3c2CCCC3)cc1 | 22.1
59 | CCN(CC)CC(=O)NC1CCCc2c1cnn2-c1cc(F)cc(F)c1 (stereo not shown) | 7.94
60 | CCCCCC(=O)Nc1ccc(S(=O)(=O)Nc2ccc(Cl)nn2)cc1.Cl | 14.8
61 | O=C(Oc1cccc(NC(=O)c2cccs2)c1)c1cccc(S(=O)(=O)N2CCCC2)c1 | 5.75
62 | CC(=O)N/C(=N/c1nc(C)cc(C)n1)Nc1cccc(C)c1 | -0.725
63 | CCc1nnc(NS(=O)(=O)c2ccc(NC(=O)Nc3ccc(OC)cc3)cc2)s1 | 18.5
64 | COc1cccc(CNc2cc(CSc3ccc(Cl)cc3)nc(C)n2)c1 | 10.7
65 | O=C(CN1CCC(NC(=O)c2ccco2)CC1)Nc1ccccc1C(F)(F)F | 7.54
66 | Cc1ccc(/C=N/N2CCN(Cc3cccc4ccccc34)CC2)s1 | -0.986

Row | SMILES | hERG current change (%, negative = inhibition) at 1uM [%]
67 | CN(C(=O)Cn1nc(Cl)ccc1=O)C1CCCN(Cc2ccccc2F)C1 (stereo not shown) | 17.3
68 | COc1ccccc1C(=O)Nc1nnn(C)n1 | 14
69 | Cl.FC(F)(F)c1ccccc1/C=N/N1CCN(Cc2ccccc2)CC1 | 2.22
70 | CCC(=O)N1CCN=C1SCc1cc(C)ccc1C | 13.7
71 | Cc1[nH]c2ccccc2c1C(=O)COC(=O)Cn1c(C(F)(F)F)nc2ccccc21 | 11.8
72 | C/C(CC(=O)NC1CCCC1)=N\NC(=O)Cc1csc(N)n1 | 13.7
73 | Cc1occc1C(=O)Nc1nnc(-c2cccs2)s1 | 7.33
74 | CCOP(=O)(OCC)C(NC(=O)Nc1ccc(Cl)cc1)C(=O)N(CC)CC (stereo not shown) | 3.23
75 | C=CCN1N=C(/C=C/c2ccc(OC)cc2)CCC1=O | 11.7
76 | O=C(O)c1cc(C(F)(F)F)nc2c(C(F)(F)F)cccc12 | 14.4
77 | CCC(=O)c1ccc(OCC(=O)OCC(=O)Nc2ccc(C)c(S(=O)(=O)N3CCCCC3)c2)cc1 | 14.1
78 | Cc1ccc(C)c(N2CCN(C(=O)CCCOc3cc(=O)n(C)c4ccccc34)CC2)c1 | 1.82
79 | Cn1c(Cc2ccccc2)nnc1SCC(=O)Nc1ccc2c(c1)OCO2 | 11.8
80 | COc1ccc(C(=O)Nc2nc(N)n(-c3ccccc3)n2)cc1 | 2.54
81 | COc1cc(OC)cc(C(=O)N[C@H](C(=O)Nc2ccc(F)cc2F)C(C)C)c1 | 14.1
82 | O=C(CSCc1ccccc1Cl)Nc1ccc2c(c1)OCCO2 | 9.4
83 | O=C(O)CCCc1ccc(N(CCCl)CCCl)cc1 | 17.3
84 | COC(=O)C1=C(C)N(CCc2cc(OC)c(OC)c(OC)c2)C(=O)N[C@H]1c1ccccc1 | 12.2
85 | CC(=O)NCCn1c(SCC#N)nc2ccccc2c1=O | 3.61
86 | CCCSCCCNC(=O)c1ccc(C)c(NC(=O)C2=C(C)OCCS2)c1 | 15.5
87 | CC(C)(C)c1ccc(S(=O)(=O)N2CCSC2)cc1 | 12.9
88 | O=C(c1ccc([N+](=O)[O-])cc1)n1nc(-c2ccccc2)nc1NCc1ccc(F)cc1 | 10.2
